Measured values published in publication PMC4336329 (PLoS ONE, 2015).
The campaign covered roughly 310,000 compounds. About 14,000 (4.5%) showed an effect of 50% or more. Effects have a minus sign here. This is one part of the list.

These compounds were tested against human ether-à-go-go-related gene (hERG) potassium channel (human, UniProt Q12809) (assay: primary screen, population patch clamp on CHO cells stably expressing hERG).
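Further: peak tail current of the secondary pulse compared with the same well before compound.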

Sequence of human ether-à-go-go-related gene (hERG) potassium channel (Q12809 whole entry, looked up): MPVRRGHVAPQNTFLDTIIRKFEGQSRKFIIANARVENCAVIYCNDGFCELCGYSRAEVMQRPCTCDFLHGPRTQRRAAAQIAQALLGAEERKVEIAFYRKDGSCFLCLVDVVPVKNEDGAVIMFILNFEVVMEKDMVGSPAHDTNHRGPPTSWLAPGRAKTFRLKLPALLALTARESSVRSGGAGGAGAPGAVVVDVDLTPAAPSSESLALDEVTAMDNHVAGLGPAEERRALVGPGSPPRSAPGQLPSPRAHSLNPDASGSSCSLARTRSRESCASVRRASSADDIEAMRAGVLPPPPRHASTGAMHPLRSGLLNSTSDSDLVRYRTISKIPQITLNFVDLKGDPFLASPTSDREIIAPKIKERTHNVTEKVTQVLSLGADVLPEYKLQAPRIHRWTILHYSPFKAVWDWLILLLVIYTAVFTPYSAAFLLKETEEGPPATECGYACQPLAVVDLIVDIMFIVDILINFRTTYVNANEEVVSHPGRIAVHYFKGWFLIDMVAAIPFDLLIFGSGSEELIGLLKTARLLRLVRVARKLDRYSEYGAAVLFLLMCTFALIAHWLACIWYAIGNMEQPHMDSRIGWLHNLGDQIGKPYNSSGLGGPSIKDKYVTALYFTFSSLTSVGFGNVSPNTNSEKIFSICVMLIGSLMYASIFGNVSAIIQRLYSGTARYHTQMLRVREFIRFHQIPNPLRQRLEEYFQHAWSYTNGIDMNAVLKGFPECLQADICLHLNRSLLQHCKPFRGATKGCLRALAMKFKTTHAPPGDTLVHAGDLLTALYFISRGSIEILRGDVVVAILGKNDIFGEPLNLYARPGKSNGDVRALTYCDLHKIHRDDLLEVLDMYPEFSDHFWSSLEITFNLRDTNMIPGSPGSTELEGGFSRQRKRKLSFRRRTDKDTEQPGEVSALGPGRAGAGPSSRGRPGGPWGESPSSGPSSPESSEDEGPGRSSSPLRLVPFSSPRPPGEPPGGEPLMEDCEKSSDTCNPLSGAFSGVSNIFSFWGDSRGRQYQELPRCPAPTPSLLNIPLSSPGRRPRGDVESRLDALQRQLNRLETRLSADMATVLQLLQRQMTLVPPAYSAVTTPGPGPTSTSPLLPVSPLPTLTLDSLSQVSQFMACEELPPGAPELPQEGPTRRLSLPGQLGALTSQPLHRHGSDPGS

| Structure (SMILES) | hERG current change (%, negative = inhibition) at 10uM |
| --- | --- |
| O=C(CN1CCc2ccccc2C1)c1cccs1.O=C(O)C(=O)O | 1.44% |
| CSc1ccccc1NC(=O)COC(=O)c1ccc(O)cc1 | -12.8% |
| CCn1ncc([N+](=O)[O-])c1C(=O)n1nc(C)cc1C | -0.972% |
| O=C(C1CCCCN1S(=O)(=O)c1ccc(F)cc1)N1CCN(c2ccccc2F)CC1 (stereo not shown) | -33.6% |
| O=C(O)C1CC1C(=O)Nc1nc2c(Cl)cccc2s1 (stereo not shown) | 13.1% |
| COc1cc(-c2nc3ccccn3c2/N=C/c2cccc(F)c2)ccc1O | 4.38% |
| CCc1nnc(NC(=O)c2cccc(S(=O)(=O)N3CCN(c4ccccc4)CC3)c2)s1 | 5.01% |
| CCC(=O)N1CCc2cc(S(=O)(=O)NC(Cc3ccccc3)C(=O)NC3CCCCC3C)ccc21 (stereo not shown) | -9.37% |
| CC(NC(=O)COC(=O)CSc1ccc(F)cc1)c1ccc(F)cc1 (stereo not shown) | 10.5% |
| Cc1ccc(NC(=O)CNC(=O)c2ccc3c(c2)OCO3)nc1 | 1.63% |
| Cc1ccc2c(c1)CC1(CN2C)C(=O)NC(=O)N(c2ccccc2C)C1=O (stereo not shown) | 11.6% |
| O=C(Cc1cccs1)N1CCC2(CC1)OCCO2 | -3.26% |
| Cc1cc(-c2n[nH]c(=S)n2/N=C/c2cccc(O)c2)n[nH]1 | 28.2% |
| CCc1nnc(NC(=O)c2ccc(S(=O)(=O)N3CCc4ccccc4C3)cc2)s1 | 8.99% |
| O=S(=O)(NCCc1ccncc1)c1ccccc1 | 4.04% |
| CC1CCN(C(=O)C(=O)Nc2sc3c(c2C(N)=O)CC(C)(C)OC3)CC1 | 3.89% |
| COc1ccc(C(=O)c2coc3c2C(=O)C(=O)c2ccccc2-3)cc1 | 6.77% |
| CCC(=O)Nc1ccc(Br)c(Cl)c1 | 9.04% |
| COc1ccccc1C(=O)NCCC(=O)NCC(c1ccc(F)cc1)N1CCOCC1 (stereo not shown) | 2.85% |
| CCOC(=O)c1c(NC(=O)CN2C(=O)c3ccccc3C2=O)sc(Cc2ccc3c(c2)OCO3)c1C | 9.12% |

| Structure (SMILES) | hERG current change (%, negative = inhibition) at 10uM |
| --- | --- |
| CCOC(=O)N=Nc1c(O)n(Cc2ccccc2)c2ccccc12 | -1.52% |
| CCC(=O)Nc1ccc(CCC(=O)N2CCCC2)cc1 | 16.8% |
| CC1(c2ccccc2)CC(C)(C)n2c(O)c(C3=NC(=S)NC3=O)c3cccc1c32 (stereo not shown) | 7.79% |
| CC(C)C(=O)NNc1ccc(C(F)(F)F)cn1 | 29.4% |
| CC(C)c1ccc(C2C3CSCC=C3C(C#N)=C(N)C2(C#N)C#N)cc1 (stereo not shown) | 2.89% |
| Cc1ccc(S(=O)(=O)Nc2ccc3oc(=O)sc3c2)c(C)c1 | -11.1% |
| CCN(CC)C(=O)c1ccccc1NS(=O)(=O)c1cccs1 | 0.00858% |
| Cc1sc2ncn3cnnc3c2c1C | -1.29% |
| CCc1cc(=O)oc2c(C)c(OC(C)C(=O)N3CC[C@@]4(O)CCCC[C@H]4C3)ccc12 (stereo partly shown) | -3.21% |
| Cc1ccc(NC(=O)CSc2nc(-c3ccco3)nc3cc(=O)[nH]n23)c(Cl)c1 | 11.9% |
| COCCn1c(C(C)C)nc2ccccc21 | 4.45% |
| O=C(Nc1ccc(F)cc1)N1CC2CC(C1)c1cccc(=O)n1C2 (stereo not shown) | 24.3% |
| Cc1ccc(NC(=O)Cc2nnc(SCC(=O)Nc3ccccc3)n2C)cc1 | 7.11% |
| N#CC1c2ccccc2C=CN1C(=O)c1ccccc1 (stereo not shown) | -18.7% |
| CCOc1ccccc1N1CCN(C(=O)c2ccc3c(c2)OCO3)CC1 | -7.22% |
| Cc1cccc(OCC(=O)Nc2ccc3c(c2)C(=O)NC3=O)c1 | -5.56% |
| COc1cccc(-c2nc(NC(C)(C)C)c3ccccc3n2)c1O | 2.89% |
| O=C1Nc2cc(C(=O)N3CCC4(CC3)OCCO4)ccc2NC1CSCc1cccc(F)c1 (stereo not shown) | 2.89% |
| Cc1cc(C)nc(N2CCN(C(=O)CCC(=O)Nc3nnc(C(C)C)s3)CC2)n1 | 6.81% |
| O=C(NCCc1ccccc1F)C1CCC(=O)N(Cc2ccc(Cl)cc2)C1 (stereo not shown) | -32.5% |

| Structure (SMILES) | hERG current change (%, negative = inhibition) at 10uM |
| --- | --- |
| Cc1ccc(-c2nc(NCCCO)c3ccccc3n2)cc1 | -41.2% |
| CCc1cc(C(=O)NNC(=S)NCc2ccccc2)cs1 | -6.47% |
| O=C1NC(Cc2c[nH]c3ccccc23)C(=O)N1Cc1ccccc1 (stereo not shown) | 6.2% |
| Cc1ccnc(NC(=O)CCC(=O)N(CC(=O)NCc2ccccc2)Cc2ccco2)c1 | -15.6% |
| CCCCNC(=O)N1CCN(Cc2cccc(F)c2)CC1 | 4.88% |
| CC(C)(C)c1ccccc1OCC(=O)NCc1ccccc1 | 10.5% |
| Cc1ccc2[nH]c(-c3ccccc3)cc(=O)c2c1 | 4.98% |
| CC(NC(=O)c1ccco1)c1nc(-c2ccccc2)no1 (stereo not shown) | 13% |
| OCC[C@H]1C[C@@H](O)[C@H](O)[C@@]2(Cc3ccccc3CCO2)O1 | 7.01% |
| COc1ccc(S(=O)(=O)Oc2ccccc2C(=S)N2CCOCC2)cc1 | 9.91% |
| CC(=O)N(c1nc(CCl)cs1)c1cccc(C)c1C | 10.8% |
| CC(=O)Oc1ccc(/C=C2/Oc3ccccc3C2=O)cc1 | 16.1% |
| O=C1NCC(=O)N2C(c3ccccc3)c3[nH]c4ccccc4c3C[C@@H]12 (stereo partly shown) | 3.26% |
| O=C(Nc1ccccc1C(=O)N1CCCCC1)c1cccs1 | -3.06% |
| Cc1ccc(-c2csc(NC(=O)c3cc([N+](=O)[O-])ccc3N3CCOCC3)n2)cc1 | 15.4% |
| O=C1OC(c2ccccc2)/C(=C(/O)c2ccc(Cl)cc2)C1=O (stereo not shown) | 21.3% |
| O=C(Nc1ccccn1)C12CC3CC(C1)CC(C(=O)Nc1ccccn1)(C3)C2 | -2.89% |
| COc1ccc2[nH]c3c(N4CCc5ccccc5C4)ncnc3c2c1 | 10.2% |
